T1: UNK ZnF1-3 (human, UniProt Q9C0B0 31-174)
T1 sequence: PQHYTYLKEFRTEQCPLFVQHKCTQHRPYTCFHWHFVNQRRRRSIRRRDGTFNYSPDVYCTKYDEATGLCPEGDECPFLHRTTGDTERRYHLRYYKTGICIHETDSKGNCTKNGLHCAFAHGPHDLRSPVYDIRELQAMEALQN

B1: chr5:128448638:128448639:+_ENSG00000066583_ENST00000173527|hu_hu|FALSE|FALSE (ssRNA)
RNA: GGGAGUUCUACAGUCCGACGAUCAGCACUCGCCUUAAUUAGAUUCUGAAUUUCCUUGAAUUUUGGAUGGUCCUUAUCAGCUACCAGCUGAAGCAGAACAGCCUCACUCGUGGUCACUAUGAUCCCGGUUCGAGCGAGACGCUCCAACAGAGGAUUGAGCAUCA
B2: chr4:43703020:43703021:+_ENSMUSG00000078716_ENSMUST00000107866|mus_hu|FALSE|FALSE (ssRNA)
RNA: GGGAGUUCUACAGUCCGACGAUCCACACUGCCCGCAAUGAGCAUAUGCCAAAUGCUGUGAAUGUAGAAGUAGUUGUCCCGGGUCUCCACAAAAGCAUAAAGCAGGACGGCACUGCCUGCAAUAAGGCUGCCAGGGCACAAGUACAACAGAGGAUUGAGCAUCA
B3: chr18:33598288:33598289:-_ENSMUSG00000042834_ENSMUST00000171533|mus_mus|FALSE|FALSE (ssRNA)
RNA: GGGAGUUCUACAGUCCGACGAUCAGUCAGAAUGAUUAAAAACUGGUUUGAUGAAACCUAUUUGUCCACUGUAAAUUCUCUAAAGCCAGGCUUAGAGUCCCAUAGUUUCUUCUUAUAGUUGAUGAUUUACACAGAAAAAAAAAACAACAGAGGAUUGAGCAUCA
B4: chr1:163115689:163115690:-_ENSG00000143248_ENST00000313961|hu_hu|FALSE|FALSE (ssRNA)
RNA: GGGAGUUCUACAGUCCGACGAUCCAAUGUAAUCUUCUACUUAACAUUUCAGAAUUUUAUUAAUCCUUUAAAAAUCACCCUAUUUCUUUUGAGUUAAUAUCCUCAUCUCGAUUACCCUCAUACAUGGCUUAGUUUGAUUCUGUUCAACAGAGGAUUGAGCAUCA
B5: chr5:36814161:36814162:+_ENSMUSG00000029198_ENSMUST00000031099|mus_mus|FALSE|FALSE (ssRNA)
RNA: GGGAGUUCUACAGUCCGACGAUCACUCCCAGAGUCCCUGACUGUGCAAGCAGCUUCAUGUUCUGCUUAGCUUACUUAAGAUUUCCAACAAGGCUGGGCAAGGGUCAGAUGAAUUCACAGAUGAGAAAUUACAAGCCCGCCCUUCAACAGAGGAUUGAGCAUCA
B6: chr12:493273:493274:-_ENSG00000073614_ENST00000399788|hu_mus|hu_hu_hu_mus_False|48_88 (ssRNA)
RNA: GGGAGUUCUACAGUCCGACGAUCUUUUCUCUCCACCACAGGGAUCUUCAGAGUAGAUCCUUGAAGUUCCCAAAAUUUUGCCAGUUGAUCCAAGAAAUCCAAUCUUACUCUAGUCAUUGCCUCAAGUUCAUUCAGGCGCUGGACCAACAGAGGAUUGAGCAUCA

This is one part of the list.

In the assay the target is T1, UNK ZnF1-3. The assay can be described thus: nsRBNS (natural sequence RNA bind-n-seq); RBNS binding buffer (assumed for nsRBNS): 25 mM Tris pH 7.5, 150 mM KCl, 3 mM MgCl2, 0.01% Triton X-100, 500 ug/ml BSA, 20 U/ml SUPERase-In, 4 C; UNK is unkempt and MSI1 is Musashi-1; names of the RNAs are library labels; protein concentration not given here; high values mean tight binding.
Molecule B1 gave a binding signal of 0.882 enrichment R.
With B2 the figure was 1.12 enrichment R; with B3, 1.26 enrichment R; with B4, 0.603 enrichment R.
On to B5, for which the binding signal amounted to 1.4 enrichment R.
B6 displayed a binding signal of 1.13 enrichment R.
